56 molecules from article PMC4336329 (PLoS ONE, 2015) can be followed below.

About 14,000 (4.5%) of roughly 310,000 compounds showed an effect of 50% or more. Effects have a minus sign here. Some of the results follow.
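Also: peak tail current of the secondary pulse compared with the same well before compound.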

For this test, the target named is human ether-à-go-go-related gene (hERG) potassium channel (human, UniProt Q12809). Kind of test: primary screen, population patch clamp on CHO cells stably expressing hERG.
Chain of human ether-à-go-go-related gene (hERG) potassium channel (Q12809 whole entry, looked up): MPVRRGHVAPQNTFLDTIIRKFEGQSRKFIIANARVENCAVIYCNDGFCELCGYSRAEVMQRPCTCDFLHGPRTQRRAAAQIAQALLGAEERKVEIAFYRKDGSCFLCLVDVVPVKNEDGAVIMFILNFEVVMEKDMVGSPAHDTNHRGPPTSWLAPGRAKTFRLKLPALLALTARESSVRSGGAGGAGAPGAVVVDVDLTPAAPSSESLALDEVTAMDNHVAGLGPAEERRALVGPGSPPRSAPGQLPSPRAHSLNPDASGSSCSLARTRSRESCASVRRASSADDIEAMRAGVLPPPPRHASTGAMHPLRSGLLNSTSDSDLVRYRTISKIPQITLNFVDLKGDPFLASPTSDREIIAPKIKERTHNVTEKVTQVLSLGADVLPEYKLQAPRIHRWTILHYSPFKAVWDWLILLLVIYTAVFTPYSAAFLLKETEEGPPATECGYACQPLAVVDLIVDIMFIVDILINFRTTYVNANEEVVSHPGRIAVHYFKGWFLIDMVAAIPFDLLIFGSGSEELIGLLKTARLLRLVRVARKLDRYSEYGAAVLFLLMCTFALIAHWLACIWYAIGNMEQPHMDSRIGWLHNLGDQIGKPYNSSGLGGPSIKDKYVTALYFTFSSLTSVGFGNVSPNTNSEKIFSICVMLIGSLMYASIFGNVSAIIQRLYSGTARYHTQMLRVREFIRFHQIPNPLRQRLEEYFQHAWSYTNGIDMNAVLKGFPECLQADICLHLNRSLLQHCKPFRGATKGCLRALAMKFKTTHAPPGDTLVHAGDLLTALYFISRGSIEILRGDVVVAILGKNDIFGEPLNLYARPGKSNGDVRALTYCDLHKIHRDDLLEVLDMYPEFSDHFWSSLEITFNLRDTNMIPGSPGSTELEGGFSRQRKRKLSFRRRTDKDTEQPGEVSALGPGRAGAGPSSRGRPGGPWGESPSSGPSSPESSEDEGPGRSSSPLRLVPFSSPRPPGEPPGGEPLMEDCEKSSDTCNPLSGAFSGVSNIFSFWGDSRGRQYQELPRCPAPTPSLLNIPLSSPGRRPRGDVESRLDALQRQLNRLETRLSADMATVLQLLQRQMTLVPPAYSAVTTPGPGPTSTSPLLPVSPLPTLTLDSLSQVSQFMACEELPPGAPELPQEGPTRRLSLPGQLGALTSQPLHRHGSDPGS
As to `Cc1cc(C)cc(NC(=O)C2CCCN(c3nc(C)cc(C)n3)C2)c1` (centres unmarked), the “hERG current change (%, negative = inhibition) at 10uM” value is given as -0.397%. For the molecule `CS(=O)(=O)Cc1ccc(C(=O)NC2CCN(Cc3ccccc3)C2)cc1` (centres unmarked), the “hERG current change (%, negative = inhibition) at 10uM” value is reported as -5.28%.

Turning to `O=C1/C(=C\Nc2ccc(OC(F)(F)F)cc2)CCN1c1ncccn1`, the “hERG current change (%, negative = inhibition) at 10uM” value was -8.68%. As for `CCOC(=O)C1(O)CC(C)=NN1C(=O)c1cccc(Br)c1` (centres unmarked), the “hERG current change (%, negative = inhibition) at 10uM” value is reported as 25.9%. For the molecule `O=C(Nc1ccc2c(c1)OCO2)C1CC(c2ccc(F)cc2)=NO1` (centres unmarked), the “hERG current change (%, negative = inhibition) at 10uM” value turned out to be 13.4%. Take `COc1ccc(CNC(=O)C(OC(=O)c2ccco2)c2ccc(OC)cc2)cc1` (centres unmarked): the “hERG current change (%, negative = inhibition) at 10uM” value amounted to 8.14%. As for `Cc1cccc(N=C2NC(=O)/C(=C3/C(=O)N(C)c4ccccc43)S2)c1C`, the “hERG current change (%, negative = inhibition) at 10uM” value was -3.46%. With `CS(=O)(=O)ON=C1CCN(S(=O)(=O)c2ccccc2)CC1`, the “hERG current change (%, negative = inhibition) at 10uM” value came out at 12%. With `CCN(CC(=O)NCc1ccc2c(c1)OCO2)S(=O)(=O)c1ccc(F)cc1`, the “hERG current change (%, negative = inhibition) at 10uM” value is recorded as -28.8%.

Regarding `Cc1cccc(NC(=O)c2ccc(-c3ccccc3[N+](=O)[O-])o2)c1`, the “hERG current change (%, negative = inhibition) at 10uM” value is -55.2%. For the molecule `CCOc1ccc(/C=N/NC(=O)Nc2ccccc2)cc1`, the “hERG current change (%, negative = inhibition) at 10uM” value was 11.4%. The result for `COc1cc2c3c(c1)/C(=C1/SC(=S)NC1=O)C(=O)N3C(C)(C)C=C2C` reads 2.71%; that for `O=C(COC(=O)CNS(=O)(=O)c1c(F)cccc1F)NC(=O)NC1CCCCC1`, -14.9%; that for `COc1ccc(CNc2cc(NCCCO)c([N+](=O)[O-])c3nonc23)cc1`, -1.3%. Turning to `Cc1cccc(C)c1NC(=O)[C@@]1(CC(=O)O)CC(/C=C/c2ccccc2)=NO1`, the “hERG current change (%, negative = inhibition) at 10uM” value was 19.2%. The value for `CC(C)(C)C(=O)C(Cl)C(=O)Nc1ccccc1` (centres unmarked) was -8.23%; that for `COCCNC(=O)C(c1ccc(F)cc1)N(C(=O)CCC(=O)Nc1nccs1)c1cccc(C)c1` (centres unmarked) was 6.78%; that for `Cc1ccccc1NC(=S)NC(C)CCc1ccccc1` (centres unmarked) was -4.81%. As for `CC1CN(C(=O)c2cc3cc(Br)ccc3[nH]2)CC(C)O1` (centres unmarked), the “hERG current change (%, negative = inhibition) at 10uM” value is on record as -8.13%. The result for `O=C(c1ccc(=O)oc1)N1CCN(c2ccc(F)cc2)CC1` reads -25.4%. With `O=C(Nc1ccc(Cl)c(Cl)c1)Oc1ccc(NC(=O)c2ccco2)cc1`, the “hERG current change (%, negative = inhibition) at 10uM” value stood at 20.5%.

On to `COC(=O)CCC(=O)Nc1sc2c(c1C#N)CCCC2`, for which the “hERG current change (%, negative = inhibition) at 10uM” value is on record as 3.74%. Consider `C#CCOCCOCCOCCNc1nc(N2CCN(C(=O)Cn3cc(CCC[NH+]=C(N)N)nn3)CC2)nc(N2CCN(C(=O)[C@H](C)n3cc(CCC[NH+]=C(N)N)nn3)CC2)n1.[Cl-]`, for which the “hERG current change (%, negative = inhibition) at 10uM” value came to 6.62%. The result for `N#Cc1ccc(Oc2ccc(NC(=O)C3CC=CCC3C(=O)O)cc2)cc1` (centres unmarked) reads 12.9%; that for `Cc1ccc(CNC(=O)C2CC2c2ccccc2)cc1` (centres unmarked), 5.43%; that for `COC(=O)c1c(-c2ccc(Br)cc2)noc1N`, 10.1%. The result for `O=c1c2ccccc2oc2cc(NCCCn3ccnc3)ccc12` reads -60.9%; that for `N#CCC(=O)N/N=C1\CCCCC1C1CCCCC1` (centres unmarked), 7.35%. The result for `Cc1ccc(CC2CC(=O)N(Cc3ccco3)C2=O)cc1` (centres unmarked) reads 1.58%; that for `COc1ccc(N2CCN(C(=O)c3cc(=O)c4cc(C)cc(C)c4o3)CC2)cc1`, -11.6%; that for `Cc1cc(C)c(S(=O)(=O)NCCC2CCCN2C)c(C)c1` (centres unmarked), -2.46%.

As for `O=C(Cc1cccc(NC(=O)C2CCCN(C(=O)C3CC3)C2)c1)Nc1cccc(C(=O)N2CCCC2)c1` (centres unmarked), the “hERG current change (%, negative = inhibition) at 10uM” value is listed as 7.83%.

Consider `O=[N+]([O-])c1cccc(CN2CCN(c3cccc4[nH]ccc34)CC2)c1`, for which the “hERG current change (%, negative = inhibition) at 10uM” value was -7.67%. Take `COc1ccc(OCC2CCNCC2)cc1.Cl`: the “hERG current change (%, negative = inhibition) at 10uM” value is -3.56%. The value for `C=CCOC(=O)CCP(=O)(CCC(=O)OCC=C)c1ccccc1` was -16.5%; that for `Nc1c(-c2cccc(Cl)c2)cnc2c(-c3ccccc3)cnn12` was 13.9%. As to `CC12CCC(C(=O)N(NC(=O)c3cccnc3)C1=O)C2(C)C` (centres unmarked), the “hERG current change (%, negative = inhibition) at 10uM” value is recorded as 33%. The result for `CCCCNC(=O)CCC(=O)NNc1nc2ccccc2c2nc(C)nn12` reads 21.3%; that for `NS(=O)(=O)c1cc(C(=O)OCC(=O)NC2CC2)ccc1Cl`, -9.5%; that for `Cc1ccc(/C(O)=C2/C(=O)C(=O)N(CCN3CCOCC3)C2c2cccs2)cc1` (centres unmarked), 8.67%. With `COc1ccc(C(=O)Nc2ccnn2C2CCN(CC3CC=CCC3)CC2)cc1` (centres unmarked), the “hERG current change (%, negative = inhibition) at 10uM” value is listed as -37.4%. In the case of `CN(C(=O)COC(=O)/C=C/c1cccs1)c1c(N)n(Cc2ccccc2)c(=O)[nH]c1=O`, the “hERG current change (%, negative = inhibition) at 10uM” value is recorded as -10.2%.

Take `O=C(CCCn1cc([N+](=O)[O-])cn1)Nc1cccnc1`: the “hERG current change (%, negative = inhibition) at 10uM” value is -0.81%. The result for `c1ccc(-c2nc3ccccn3c2-c2ccccc2)cc1` reads -17.4%; that for `CCOC(=O)c1ccc(NC(=O)c2nc[nH]c2C(=O)N2CCc3ccccc3C2)cc1`, 0.122%. For `O=C(NCC1CCCO1)c1cc(-c2ccc(Cl)cc2Cl)on1` (centres unmarked), the “hERG current change (%, negative = inhibition) at 10uM” value is recorded as -9.68%.

Consider `CCCOc1cccc(-c2nc3ccccc3c(=O)o2)c1`, for which the “hERG current change (%, negative = inhibition) at 10uM” value was 8.72%.

Turning to `CCN(CC)S(=O)(=O)c1ccc(N=N/C(C(C)=O)=C(/C)O)cc1`, the “hERG current change (%, negative = inhibition) at 10uM” value is listed as 7.32%. As to `O=C(CN1C(=O)NC2(CCCC2)C1=O)N1CCN(Cc2ccccc2)CC1`, the “hERG current change (%, negative = inhibition) at 10uM” value is on record as -3.04%. The result for `Cc1cc(/C=N/NC(=O)c2cccs2)c(C)n1-c1ccccc1` reads 15.6%; that for `CC(C)(C)c1ccc(-c2n[nH]c(=S)n2CC2CCCO2)cc1` (centres unmarked), -2.69%; that for `Cc1ccc(S(=O)(=O)N2CCOCC2)cc1NC(=O)c1cccc(S(=O)(=O)N2CCCC2)c1`, 1.48%. With `CCC(C)c1ccccc1NC(=O)COC(=O)c1ccc(N2CCCC2)c([N+](=O)[O-])c1` (centres unmarked), the “hERG current change (%, negative = inhibition) at 10uM” value came out at 6.97%. The result for `CCOC(=O)c1c(C)[nH]c(NC(=O)N2CCOCC2)c1C` reads 8.17%; that for `CCOC(=O)C1CCN(Cc2c(C(=O)N3CCOCC3)nc3c(C)cccn23)CC1`, 7.62%. With `Cc1cc(F)ccc1S(=O)(=O)Nc1nc2ccccc2nc1Cl`, the “hERG current change (%, negative = inhibition) at 10uM” value is recorded as -1.76%.
